About 11,000 (3.1%) of roughly 360,000 compounds were called active. This list was built around the results that the source calls inconclusive (neither active nor inactive); the mix of calls is not that of the screen. Calls come from the whole dose curve; as a rule, active = well fitted inhibition curve with a large enough effect; inconclusive = small, poorly fitted or top-dose-only effect; inactive = no such curve, though single readings can be large or run the other way. Potencies of inconclusive entries are left out as doubtful fits.
The compounds below were run against Schistosoma mansoni thioredoxin glutathione reductase (TGR) (UniProt Q962Y6) (assay: qHTS Assay for the Inhibitors of Schistosoma Mansoni Peroxiredoxins). Conditions: purified TGR, DTNB reduction, TNB absorbance 405 nm; activity change, negative = inhibition: at 114 µM (top of the series) unless noted.
Summary of the method: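 First, TGR (20 nM dispensed) and NADPH were mixed with compound. Second, a 15 min room-temperature incubation followed. Third, further NADPH and then DTNB were added to start the reaction. Finally, TNB absorbance was monitored kinetically.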
% is set by controls: 0 for no effect and ±100 for the full control effect; potency is the fitted concentration of half-maximal effect; tags give direction and shape of the fitted curve.
Note: nearly all actives have a fitted effect of over 60% in size.

SMILES	Potency	activity change, negative = inhibition
Cc1ccc(/C=C/C(=O)NCc2ccccn2)o1	active: 17.8 µM	
CC(C)N1CC=C2C(C#N)=C(N)C(C#N)(C#N)C(c3ccccc3)C2C1 (configuration not stated)	inconclusive [inhibitor, partial curve]	
Cc1c(N)c(=O)n(-c2ccccc2)n1C	inconclusive [inhibitor, partial curve]	
CCc1c(C)sc(NC(=O)CN2CCN(C(=O)c3ccco3)CC2)c1C(=O)OC	inconclusive [inhibitor, full curve, poor fit]	
Cc1ccc(NC(=O)C(C)Sc2nc(-c3ccccc3)cc(=O)[nH]2)cc1 (configuration not stated)		inactive: -13.6%
COc1ccc(Nc2nc(CC(C)=O)ns2)cc1OC	active: 12.6 µM	
Cc1ccc(C(=O)O)cc1NC(=S)NC(=O)C(c1ccccc1)c1ccccc1	active: 56.2 µM	
O=C(CSc1nc2ncc(Br)cc2[nH]1)c1ccc([N+](=O)[O-])cc1	inconclusive [inhibitor, partial curve]	
O=c1[nH]c(C2CCN(S(=O)(=O)c3ccc4c(c3)OCCO4)CC2)nc2c1nnn2Cc1ccc(F)cc1		inactive: 2.85%
CCOc1ccc(N2C(=O)CC(NCCNc3ccc(C(=O)c4cccs4)cc3)C2=O)cc1 (configuration not stated)	inconclusive [inhibitor, partial curve]	
OCCC1CN(Cc2ccc3cccc(F)c3n2)CCN1Cc1ccccc1 (configuration not stated)	inconclusive [inhibitor, full curve, poor fit]	
C=CCn1c(SCC(=O)Nc2ccc(F)cc2)nc2ccccc2c1=O	inconclusive [inhibitor, full curve, poor fit]	
CCOc1cccc(C(=O)Nc2cccc(-c3nc4ncccc4o3)c2C)c1	inconclusive [inhibitor, partial curve]	
CCC(C)(C)n1nnnc1C(c1ccc2ncccc2c1)N1CCN(c2ccc(O)cc2)CC1 (configuration not stated)	active: 50.1 µM	
COc1ccc(C2=Nn3c(C)nnc3SC2)cc1	inconclusive [inhibitor, full curve]	
O=C(CSc1ccccc1)NCCCN1CCOCC1	inconclusive [inhibitor, single point]	
CCCc1cc(=O)[nH]c(SCC(=O)NCC2COc3ccccc3O2)n1 (configuration not stated)		inactive: 3.34%
CCN1C(=O)[C@@H]2[C@@H](c3ccc(-c4ccccc4)cc3)N3CCCC[C@@]3(C(=O)OC)[C@@H]2C1=O	active: 35.5 µM	
COC1=C(Nc2ccccc2OC)C(=O)c2ccccc2C1=O	inconclusive [inhibitor, full curve, poor fit]	
Cc1c(NC(=O)OC(C)C)sc(=S)n1C	active: 35.5 µM	
Cc1oc(-c2ccc(Cl)cc2)nc1CN1CCCC(C(=O)NCCCN2CCOCC2)C1 (configuration not stated)	active: 79.4 µM	
CN(CCOc1ccc(Cl)cc1)C(=O)C1CCN(C(=O)c2ccc(F)cc2)CC1		inactive: -3.05%
Cc1cc(CNC(=O)COC(=O)c2ccc(Cl)c(N)c2)cc(C)c1O	inconclusive [inhibitor, partial curve]	
CCCN(CCC)C(=O)C1CCCN(c2ncnc3onc(-c4ccc(F)cc4)c23)C1 (configuration not stated)		inactive: 1.46%

SMILES	Potency	activity change, negative = inhibition
COC(=O)c1ccc(OC(=O)c2cnccn2)cc1	active: 56.2 µM	
COc1ccc(/C=C(/C#N)C(=O)Nc2ccccc2C)cc1C(=O)O		inactive: -10.9%
Cc1ccc(OCC(=O)NNC(=O)c2ccco2)c(C)c1		inactive: -5.29%
COc1cc(CN2CCCC(C(=O)c3ccc(C(C)(C)C)cc3)C2)cc(OC)c1O (configuration not stated)	inconclusive [inhibitor, single point]	
O=C(/C=C/c1ccco1)NCC1COc2ccccc2O1 (configuration not stated)	active: 0.891 µM	
Cc1cccc(C(=O)O/N=C2/CC3CCC2(C)C3(C)C)c1 (configuration not stated)	inconclusive [inhibitor, single point]	
CNC(=S)N1N=C(c2ccc(OC)cc2)CC1c1ccc(Cl)cc1Cl (configuration not stated)		inactive: 0.877%
CCC1Sc2ccc(S(=O)(=O)CCC(=O)NCc3ccc(C)o3)cc2NC1=O (configuration not stated)	active: 28.2 µM	
Cc1cccc(Cl)c1NC(=O)N1CCCN(c2nc3ccc(Cl)cc3s2)CC1		inactive: 8.84%
CCCCNC(=O)c1cc(-c2ccc(Cl)c(Cl)c2)on1		inactive: -1.93%
CC1=C(C#N)c2nc(N)c(C#N)c(C)c2/C1=C\c1ccc(OCC(=O)O)c(Cl)c1	inconclusive [inhibitor, full curve]	
O=C(CSc1ccccc1C(=O)O)c1ccc(Cl)cc1		inactive: -24.9%
O=C(COC(=O)CNC(=O)c1ccc([N+](=O)[O-])o1)Nc1ncc(C(F)(F)F)cc1Cl	inconclusive [inhibitor, partial curve]	
CC(C)(C)CN1CCNC(=O)C1CC(=O)NCCc1ccccc1F (configuration not stated)	active: 50.1 µM	
COC(=O)c1ccc(C23CC4(C2)[C@H](CN(Cc2ccc(-c5ccccc5)cc2)[C@@H]4c2ccccc2)C3c2ccc(Cl)nc2)cc1 (some centres not stated)	inconclusive [inhibitor, full curve]	
COc1ccc(/C=C/C(=O)Nc2ccc(Cl)cc2Cl)cc1		inactive: -3.97%
O=C(Nc1ccc(F)cc1)Oc1ccc[nH]c1=O	inconclusive [inhibitor, partial curve]	
N#CC1=C(N)C(C#N)(C#N)C(c2ccncc2)C2CN(C(=O)OCc3ccccc3)CC=C12 (configuration not stated)	inconclusive [inhibitor, full curve]	
C/C=C\C=C/C(=O)Nc1cccc(C2=NOC3(C2)C[C@@H](C(N)=O)N(C(=O)/C=C/C=C\C)C3)c1 (some centres not stated)	inconclusive [inhibitor, full curve, poor fit]	
O=c1[nH]c2cc3c(cc2cc1C(c1nnnn1Cc1ccccc1)N1CCCCCC1)OCCO3 (configuration not stated)	inconclusive [inhibitor, partial curve]	
CCOC(=O)c1cc(C(C)(C)C)oc1CN		inactive: -5.99%
Cc1ccc(S(=O)(=O)C(CNC(=O)COc2ccc(Cl)cc2)c2ccco2)cc1 (configuration not stated)	inconclusive [inhibitor, partial curve]	
Cc1ccc(-c2nc(CS(=O)CC(=O)NCCN(CC(C)C)CC(C)C)c(C)o2)cc1 (configuration not stated)	inconclusive [inhibitor, partial curve]	
